Measurements: paper PMC4336329 (PLoS ONE, 2015)
Out of some 310,000 compounds screened, about 2,200 (0.71%) showed an effect of 50% or more. The effect is printed as a negative number. The list shows a part of the results.

Each compound was assayed against human ether-à-go-go-related gene (hERG) potassium channel (human, UniProt Q12809) (assay: primary screen, population patch clamp on CHO cells stably expressing hERG).
human ether-à-go-go-related gene (hERG) potassium channel, sequence (Q12809 whole entry, looked up): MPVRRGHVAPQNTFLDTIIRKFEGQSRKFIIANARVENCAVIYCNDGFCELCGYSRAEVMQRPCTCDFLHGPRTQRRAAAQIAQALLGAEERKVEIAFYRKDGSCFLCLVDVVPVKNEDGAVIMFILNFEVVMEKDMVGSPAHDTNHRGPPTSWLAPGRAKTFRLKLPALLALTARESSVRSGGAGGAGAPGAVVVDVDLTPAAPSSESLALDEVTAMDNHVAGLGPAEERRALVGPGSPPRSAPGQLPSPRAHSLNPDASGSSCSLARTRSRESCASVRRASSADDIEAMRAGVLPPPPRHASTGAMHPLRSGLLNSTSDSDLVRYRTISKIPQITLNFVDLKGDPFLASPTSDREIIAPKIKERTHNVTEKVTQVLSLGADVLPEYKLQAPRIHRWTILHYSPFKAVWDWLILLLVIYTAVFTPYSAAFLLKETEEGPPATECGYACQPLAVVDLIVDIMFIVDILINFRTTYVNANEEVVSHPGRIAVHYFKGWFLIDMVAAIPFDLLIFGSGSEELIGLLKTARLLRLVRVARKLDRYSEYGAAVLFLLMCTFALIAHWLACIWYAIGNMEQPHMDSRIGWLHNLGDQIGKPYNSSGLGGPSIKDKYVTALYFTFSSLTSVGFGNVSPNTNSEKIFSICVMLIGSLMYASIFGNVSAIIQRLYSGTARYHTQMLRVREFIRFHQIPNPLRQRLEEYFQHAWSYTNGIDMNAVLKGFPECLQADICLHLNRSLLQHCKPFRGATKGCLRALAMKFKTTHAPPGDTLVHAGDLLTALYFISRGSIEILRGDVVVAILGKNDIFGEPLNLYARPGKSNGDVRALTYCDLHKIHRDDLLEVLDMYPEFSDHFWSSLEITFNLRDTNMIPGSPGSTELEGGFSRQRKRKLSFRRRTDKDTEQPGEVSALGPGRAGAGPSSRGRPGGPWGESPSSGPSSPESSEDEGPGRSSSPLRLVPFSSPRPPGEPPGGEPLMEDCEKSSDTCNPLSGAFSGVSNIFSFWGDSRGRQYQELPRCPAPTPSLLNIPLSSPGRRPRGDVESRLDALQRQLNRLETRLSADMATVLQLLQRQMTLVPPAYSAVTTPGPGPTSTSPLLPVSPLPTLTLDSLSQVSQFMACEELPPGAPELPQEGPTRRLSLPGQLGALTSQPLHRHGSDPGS

Structure (SMILES) | hERG current change (%, negative = inhibition) at 1uM [%]
C/C(=N\OC(=O)c1ccc(Br)cc1)c1ccccn1 | 4.65
CCOC(=O)N1CCC(NC(=O)CCc2c(C)nc3ncnn3c2C)CC1 | 6.8
Cc1nn(CC(=O)N2CCC(C(N)=O)CC2)c(=O)c2nn(-c3ccccc3)c(C)c12 | 17
Cc1ccc(C(=O)N2CC(=O)Nc3ccc(F)cc3C2c2ccc(F)cc2)cc1[N+](=O)[O-] (stereo not drawn) | 6.15
CC(C)(C)OC(=O)[C@H](Cc1ccccc1)NC(=O)c1[nH]cnc1C(=O)N[C@@H](Cc1ccccc1)C(=O)OCc1ccccc1 | 1.61
COc1ccc(NC(=O)CN(c2c(C)cccc2C)S(C)(=O)=O)cc1 | -10.9
O=C(O)C1CSC(c2ccccc2Cl)N1C(=O)c1ccc(Cl)cc1 (stereo not drawn) | 14.9
O=C(Nc1ccccc1)c1ccc(Br)o1 | 11.4
CS(=O)(=O)N1CCN(C(=O)c2ccc3c(c2)OCCO3)CC1 | 19.2
O=C(CN(c1ccc2c(c1)OCCO2)S(=O)(=O)c1ccccc1)NCc1ccco1 | 11.5
O=C(c1cc2ccccc2oc1=O)N(Cc1ccccc1)CC1CCCO1 (stereo not drawn) | 6.58
COc1ccc(NC(C)=O)cc1S(=O)(=O)NC(C)c1ccc(-n2ccnc2)cc1 (stereo not drawn) | 1.36
COc1ccc(NC(=O)CC2S/C(=N\c3nccs3)N(C)C2=O)cc1 (stereo not drawn) | 14.9
COc1ccc(CSc2nnc(SCc3ccc([N+](=O)[O-])cc3)s2)cc1 | 10.1
Cc1ccc(OC(=O)C(C)c2cccc(C(=O)c3ccccc3)c2)cc1 (stereo not drawn) | 14.5
COc1cc(NC(=O)Cn2cnc(S(=O)(=O)N3CCC(C)CC3)c2)cc(OC)c1OC | 15
Cc1nn(-c2ccccc2)c(Cl)c1C1C(C#N)=C(N)OC2=C1C(=O)CC(C)(C)C2 (stereo not drawn) | 5.11
O=C1CC(c2ccccc2)c2cccc(F)c21 (stereo not drawn) | 9.86
Cc1cc(C)c(C(=O)N2CCCC(C(=O)c3cc(F)ccc3F)C2)o1 (stereo not drawn) | 12.2
CCOc1ccc(S(=O)(=O)N2CCC(C(=O)N3CCOCC3)CC2)cc1C | 13.2
CC(C)(C)NC(=O)/C(=C/c1cccnc1)NC(=O)c1ccco1 | -0.552

Structure (SMILES) | hERG current change (%, negative = inhibition) at 1uM [%]
COC(=O)c1ccccc1NC(=O)NCc1ccco1 | 17.5
CCOC(=O)C1=C(CN2CCN(C(=O)c3ccco3)CC2)NC(=O)NC1c1ccc(Cl)cc1 (stereo not drawn) | -0.668
CCOC(=O)c1c(N)sc(C(=O)Nc2ccccc2)c1C | 10.7
O=S(=O)(Nc1ccc(N2CCCCC2)cc1)c1ccc(F)cc1F | 7.99
COC(=O)C(C)Sc1ccc2nnc(CCNS(=O)(=O)c3ccc(C)cc3)n2n1 (stereo not drawn) | 5.96
CCCNC(=O)C1CCN(S(=O)(=O)c2c(C)noc2/C=C\c2ccc(OC)cc2)CC1 | 1.33
C[C@@H]1CN(C2CCN(Cc3nc(CC4CC4)no3)CC2)C[C@H](C)O1 | 10.5
Cc1ccccc1C(=O)N1CCN(c2ccc(NC(=O)c3ccc([N+](=O)[O-])o3)cc2)CC1 | 12.8
FC(F)Oc1ccc(NC(=S)NCc2ccccc2)cc1 | 10.9
FC(F)(F)c1cccc(NC(=S)NCc2ccccc2)c1 | 2.25
CNC(=S)NNc1nc(C)cc(C)n1 | 4.57
CC(=O)c1ccc(Nc2nc(=O)c3cccnc3s2)cc1 | 11.4
CC1=C(C(=O)N2CCOCC2)C(c2ccc(Cl)cc2)NC(=S)N1 (stereo not drawn) | 17.9
Cc1ccc2nc(NC(=O)CSc3nc(=O)n(CCN(C)C)c4c3CCCC4)sc2c1 | -4.09
COc1cccc(CN2C(=O)C(C)Oc3ccccc32)c1 (stereo not drawn) | 10.8
CCCc1cc(=O)[nH]c(SCC(=O)Nc2nonc2N)n1 | -14.3
COc1cccc(-n2nnnc2SCC(=O)NC2CCCC2)c1 | 10
COc1ccc(S(=O)(=O)N2CCC(NC(=O)OCc3c(Cl)cccc3Cl)CC2)cc1 | 2.08
COC(=O)c1ccccc1S(=O)(=O)N1CCC(C(=O)OCc2ccc([N+](=O)[O-])cc2)CC1 | -32.2
O=C(NCCc1ccccc1)c1ccc2c(c1)N(Cc1ccccc1)C(=O)CS2=O (stereo not drawn) | 11.1
CCOC(=O)c1c(NC=O)sc2c1CCC2 | 12.8
